According to the supplement of paper PMC8728848:
Some of the results follow.

What was measured:
Experiment in all cases: glycan array binding signal (z-score within array); higher = stronger binding
Conditions in all cases: glycan notation: IUPAC condensed, linker removed
[1] = target: Gal(b1-4)GlcNAc(b1-3)Gal(b1-4)GlcNAc(b1-3)Gal(b1-4)GlcNAc(b1-3)Gal(b1-4)GlcNAc(b1-2)Man(a1-3)[Gal(b1-4)GlcNAc(b1-3)Gal(b1-4)GlcNAc(b1-3)Gal(b1-4)GlcNAc(b1-3)Gal(b1-4)GlcNAc(b1-2)Man(a1-6)]Man(b1-4)GlcNAc(b1-4)[Fuc(a1-6)]GlcNAc
Method in brief: (§1)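 Glycan array data were curated from 3228 arrays in the Consortium for Functional Glycomics database and kept only where the protein sequence was available. Glycan names were converted to IUPAC-condensed notation, and columns mapping to the same glycan were averaged. The binding signal is a within-array Z-score, averaged across arrays of the same protein sequence at different concentrations or buffers and across linkers. Negative Z-scores can be read as non-binding.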

[2] = target: Gal(b1-4)GlcNAc(b1-3)Gal(b1-4)GlcNAc(b1-3)Gal(b1-4)GlcNAc(b1-3)Gal(b1-4)GlcNAc(b1-2)[Gal(b1-4)GlcNAc(b1-3)Gal(b1-4)GlcNAc(b1-3)Gal(b1-4)GlcNAc(b1-3)Gal(b1-4)GlcNAc(b1-6)]Man(a1-6)[Gal(b1-4)GlcNAc(b1-3)Gal(b1-4)GlcNAc(b1-3)Gal(b1-4)GlcNAc(b1-3)Gal(b1-4)GlcNAc(b1-2)Man(a1-3)]Man(b1-4)GlcNAc(b1-4)[Fuc(a1-6)]GlcNAc
Method in brief: as §1

[3] = target: Gal(b1-4)GlcNAc(b1-3)Gal(b1-4)GlcNAc(b1-3)Gal(b1-4)GlcNAc(b1-3)Gal(b1-4)GlcNAc(b1-3)Gal(b1-4)GlcNAc(b1-2)Man(a1-3)[Gal(b1-4)GlcNAc(b1-3)Gal(b1-4)GlcNAc(b1-3)Gal(b1-4)GlcNAc(b1-3)Gal(b1-4)GlcNAc(b1-3)Gal(b1-4)GlcNAc(b1-2)Man(a1-6)]Man(b1-4)GlcNAc(b1-4)GlcNAc
Method in brief: as §1

[4] = target: Gal(b1-4)GlcNAc(b1-3)Gal(b1-4)GlcNAc(b1-3)Gal(b1-4)GlcNAc(b1-3)Gal(b1-4)GlcNAc(b1-3)Gal(b1-4)GlcNAc(b1-2)Man(a1-3)[Gal(b1-4)GlcNAc(b1-3)Gal(b1-4)GlcNAc(b1-3)Gal(b1-4)GlcNAc(b1-3)Gal(b1-4)GlcNAc(b1-3)Gal(b1-4)GlcNAc(b1-2)Man(a1-6)]Man(b1-4)GlcNAc(b1-4)[Fuc(a1-6)]GlcNAc
Method in brief: as §1

[5] = target: Gal(b1-4)GlcNAc(b1-3)Gal(b1-4)GlcNAc(b1-3)Gal(b1-4)GlcNAc(b1-3)Gal(b1-4)GlcNAc(b1-3)Gal(b1-4)GlcNAc(b1-2)[Gal(b1-4)GlcNAc(b1-3)Gal(b1-4)GlcNAc(b1-3)Gal(b1-4)GlcNAc(b1-3)Gal(b1-4)GlcNAc(b1-3)Gal(b1-4)GlcNAc(b1-6)]Man(a1-6)[Gal(b1-4)GlcNAc(b1-3)Gal(b1-4)GlcNAc(b1-3)Gal(b1-4)GlcNAc(b1-3)Gal(b1-4)GlcNAc(b1-3)Gal(b1-4)GlcNAc(b1-2)Man(a1-3)]Man(b1-4)GlcNAc(b1-4)[Fuc(a1-6)]GlcNAc
Method in brief: as §1

[6] = target: Gal(b1-4)GlcNAc(b1-3)Gal(b1-4)GlcNAc(b1-3)Gal(b1-4)GlcNAc(b1-3)Gal(b1-4)GlcNAc(b1-3)Gal(b1-4)GlcNAc(b1-3)Gal(b1-4)GlcNAc(b1-2)Man(a1-3)[Gal(b1-4)GlcNAc(b1-3)Gal(b1-4)GlcNAc(b1-3)Gal(b1-4)GlcNAc(b1-3)Gal(b1-4)GlcNAc(b1-3)Gal(b1-4)GlcNAc(b1-3)Gal(b1-4)GlcNAc(b1-2)Man(a1-6)]Man(b1-4)GlcNAc(b1-4)GlcNAc
Method in brief: as §1

[7] = target: Gal(b1-4)GlcNAc(b1-3)Gal(b1-4)GlcNAc(b1-3)GalNAc
Method in brief: as §1

[8] = target: Gal(b1-4)GlcNAc(b1-3)Gal(b1-4)GlcNAc(b1-3)[Gal(b1-4)GlcNAc(b1-3)Gal(b1-4)GlcNAc(b1-6)]GalNAc
Method in brief: as §1

[9] = target: Gal(b1-4)GlcNAc(b1-3)Gal(b1-4)GlcNAc(b1-6)[Gal(b1-3)]GalNAc
Method in brief: as §1

[10] = target: Gal(b1-4)GlcNAc(b1-3)Gal(b1-4)[Fuc(a1-3)]GlcNAc(b1-3)Gal(b1-4)[Fuc(a1-3)]GlcNAc
Method in brief: as §1

[11] = target: Gal(b1-4)GlcNAc(b1-3)GalNAc
Method in brief: as §1

[12] = target: Gal(b1-4)GlcNAc(b1-3)[Fuc(a1-3)GlcNAc(b1-6)]Gal(b1-4)Glc
Method in brief: as §1

[13] = target: Gal(b1-4)GlcNAc(b1-3)[Gal(b1-4)GlcNAc(b1-6)]Gal(b1-4)GlcNAc
Method in brief: as §1

[14] = target: Gal(b1-4)GlcNAc(b1-3)[GlcNAc(b1-6)]Gal(b1-4)GlcNAc
Method in brief: as §1

[15] = target: Gal(b1-4)GlcNAc(b1-6)Gal(b1-4)GlcNAc
Method in brief: as §1

[16] = target: Gal(b1-4)GlcNAc(b1-6)GalNAc
Method in brief: as §1

[17] = target: Gal(b1-4)GlcNAc(b1-6)[Gal(b1-3)]GalNAc
Method in brief: as §1

[18] = target: Gal(b1-4)GlcNAc(b1-6)[Gal(b1-4)GlcNAc(b1-3)]GalNAc
Method in brief: as §1

[19] = target: Gal(b1-4)GlcNAc6P
Method in brief: as §1

[20] = target: Gal(b1-6)Gal
Method in brief: as §1

[21] = target: Gal3S(b1-3)GalNAc
Method in brief: as §1

[22] = target: Gal3S(b1-3)GlcNAc
Method in brief: as §1

[23] = target: Gal3S(b1-3)[Fuc(a1-4)]GlcNAc
Method in brief: as §1

B1: Epa10 (protein)
chain: MNEKIFRYLTLLFLFELARSLPVEDKLNIKKVFEKRAVDFTPFAHYPRPEGCSSPPNSVSVGLHMNLYNYPYLYVKPSTKGMFTNDTNSDADGETDGDSAGGIEGRAGQCWNPEYQDPNFPRFGYKQYGEFGASDNVNGDISWDHNEFTEGCKPVLAALPPGYNYPDEITFSNFTMVLSGYFKPKTSGVYKFELKADDFILFNFGAKNAFECCNREESIDNFGPYVAYAMWPNQADQELEVYLFEDSYYPLRLFYNNRDYHSKFKIGFYPPGQTTITFDFDGYLFMLDDTGNECRDSIRYRTVCDDKVVDDTTYSTRYSTSMVPGGGSDVITIYYIRMKCEEEDCLGQWDPINNVCYSPDDCADDGGYWNGQMCDQSCKLEGGIVNPDTGDCDKSCIESGGFLDENGNCDTTCRDDGGMLVEGQCDYQCKEAGGILVGDHCDTTCVDSGGKLNEDGTCDHSCRDQGGQLDENGECDTSCKDSGGMLIEGECDTSCKDEGGQLDDNNECINHCKDQGGIIDENGNCDTSCKDSGGKLDESGACDTSCRDDGGIIDENGNCNTTCRDDGGIIVGDHCDTSCRDAGGILIEDHCDTTCRDSGGKLNEDGTCDHSCRDQGGQLDENGKCDYSCKNGGGKLDEDGNCDMSCKENGGKLDENGDCDLSCKEDGGKLDGNGDCDYSCKEEGGVIDESGNCNTTCKDSGGQIIDGECNYGCIEVGGVVIDGECDTSCIDSGGILDGDGNCDRSCIESGGVLEDGACNTTCRDSGGQLNVDGTCDTSCRDDGGMLVEGQCDYQCKEAGGILEDGECVFPPTSSSTSETSSTTDQSSLQSDDSSMESSSTPMDSSTIESSSSEIITSESESESVPIASSSSEVMTSESESESIPILTSSSEIPIASSSSEIPVASSSSEIIIPESESESVPVASSSSEIPIASSSSEIPVASSSSEIPVASSSSEIIIPESESESIPIESTSSEAVSSRSESDSSYPTPTPTTTTITTWPNPIQPTTSNSSPIVSSSTETPGIAESSSRISDLESSRRTSILGDDRTRTRTTITSTITEDGQIITITTTVTGFVPEPTGETEGNGSDDENPENPIENNTDENEFLDPEFTDDIPDDPAGPEDNGNGPVNPEQGNDNDPVNLEDSGNNGAVNPEQAPVNDEDNGGNDPVNPEQDNNNGPANPGQDSTNGSGNSDQIDNNPPTPEENAGDGNSNGNDPADPSRRTSILGDERTRASPGGTSQPTGANGNVNGNSPGANVNGGGTGNSNNNNNNNNNNNNGNAPNGGDGSNGDANQGPSRRTSLLGDERTRAGQAAPTGGSSPDNGIAGDTSNNGGAIVSQQVDDGGAGSPRRTSILGDVRSRTTLNGEVLNFEGSGVRRAVAGNLALPLMMVGLVFNL
glycan array binding signal (z-score) [1]: 0.277 | glycan array binding signal (z-score) [2]: 0.73 | glycan array binding signal (z-score) [3]: 0.485 | glycan array binding signal (z-score) [4]: 0.536 | glycan array binding signal (z-score) [5]: 1.31 | glycan array binding signal (z-score) [6]: 0.441 | glycan array binding signal (z-score) [7]: -0.021 | glycan array binding signal (z-score) [8]: 0.054 | glycan array binding signal (z-score) [9]: 1.3 | glycan array binding signal (z-score) [10]: -0.153 | glycan array binding signal (z-score) [11]: -0.211 | glycan array binding signal (z-score) [12]: -0.239 | glycan array binding signal (z-score) [13]: 0.167 | glycan array binding signal (z-score) [14]: -0.128 | glycan array binding signal (z-score) [15]: 0.004 | glycan array binding signal (z-score) [16]: -0.127 | glycan array binding signal (z-score) [17]: 2.59 | glycan array binding signal (z-score) [18]: 0.208 | glycan array binding signal (z-score) [19]: -0.29 | glycan array binding signal (z-score) [20]: -0.2 | glycan array binding signal (z-score) [21]: -0.245 | glycan array binding signal (z-score) [22]: -0.228 | glycan array binding signal (z-score) [23]: -0.251
